Laboratory results reported in the antibiotic and cytotoxicity screens of Wong et al. (2023).
Some of the results follow.

What was measured:
HSkMC = human skeletal muscle cells; assay: cytotoxicity call (relative viability < 0.9); details: 10 µM
HepG2 = assay: cytotoxicity call (relative viability < 0.9); details: 10 µM
S. aureus RN4220 = assay: growth inhibition call (relative growth <= 0.2); details: 50 µM

Compound	cytotoxicity call (HSkMC)	cytotoxicity call (HepG2)	growth inhibition call (S. aureus RN4220)
C[C@H](CO)N1C[C@H](C)[C@H](CN(C)CC2CC2)Oc2cc(C#Cc3ccc(F)cc3)ccc2S1(=O)=O	inactive	inactive	inactive
C[C@H](CO)N1C[C@H](C)[C@H](CN(C)S(C)(=O)=O)Oc2c(NC(=O)Nc3ccccc3)cccc2C1=O	inactive	inactive	inactive
C[C@H](CO)N1C[C@H](C)[C@H](CN(C)C(=O)Nc2cccc3ccccc23)OCCCC[C@H](C)Oc2ccc(NC(=O)Nc3ccc4c(c3)OCO4)cc2C1=O	inactive	inactive	inactive
NC1=NN(c2ccccc2)C(=O)C1	inactive	inactive	inactive
C[C@@H]1CN([C@H](C)CO)C(=O)c2cc(C#Cc3ccccc3F)cnc2O[C@H]1CN(C)C(=O)c1ccc2c(c1)OCO2	inactive	inactive	inactive
C[C@@H]1CCCCO[C@H](CN(C)Cc2ccncc2)[C@@H](C)CN([C@H](C)CO)C(=O)c2cc(NC(=O)CCCCCC(=O)Nc3ccccc3N)ccc2O1	inactive	inactive	inactive
C[C@H](CO)N1C[C@H](C)[C@@H](CN(C)C(=O)Cc2ccccc2)Oc2ncc(C#CC3(O)CCCC3)cc2C1=O	inactive	inactive	inactive
CNCCC=C1c2ccccc2CCc2ccccc21.Cl	inactive	active	inactive
O=C(C[C@H]1C=C[C@H](NC(=O)Nc2cc(F)ccc2F)[C@H](CO)O1)NCCCN1CCOCC1	inactive	inactive	inactive
C[C@@H]1CN([C@@H](C)CO)C(=O)c2cc(NC(=O)Nc3ccc(C(F)(F)F)cc3)ccc2O[C@@H](C)CCCCO[C@@H]1CN(C)Cc1ccccc1	inactive	active	inactive
C[C@@H]1CN([C@H](C)CO)C(=O)c2cccc(NS(=O)(=O)c3cccs3)c2O[C@@H]1CN(C)Cc1ccncc1	inactive	inactive	inactive
COc1ccc(CN(C)C[C@H]2OCCCC[C@H](C)Oc3ccc(NC(=O)Nc4ccc(F)cc4)cc3C(=O)N([C@@H](C)CO)C[C@H]2C)cc1	inactive	active	inactive
C[C@@H]1CN([C@@H](C)CO)C(=O)c2cc(NC(=O)Nc3ccc4c(c3)OCO4)ccc2O[C@@H](C)CCCCO[C@@H]1CN(C)S(=O)(=O)c1cccs1	inactive	inactive	inactive
C[C@@H]1CN([C@@H](C)CO)C(=O)c2cccc(NC(=O)NC3CCCCC3)c2O[C@H]1CN(C)S(C)(=O)=O	inactive	inactive	inactive
COc1ccc(S(=O)(=O)Nc2ccc3c(c2)C(=O)N([C@H](C)CO)C[C@@H](C)[C@H](CN(C)S(C)(=O)=O)OCCCC[C@@H](C)O3)cc1	inactive	inactive	inactive
C[C@H](CO)N1C[C@H](C)[C@@H](CN(C)C(=O)Nc2ccc(N3CCCCC3)cc2)OCc2cn(nn2)CCCC1=O	inactive	inactive	inactive
C[C@@H]1CN([C@H](C)CO)C(=O)Cc2cc(NC(=O)Cc3cn(C)c4ccccc34)ccc2O[C@H]1CN(C)Cc1ccc(C(F)(F)F)cc1	inactive	inactive	inactive
Nc1c(O)cccc1C(=O)O	inactive	inactive	inactive
C[C@@H]1CN([C@@H](C)CO)C(=O)Cc2cc(NC(=O)CCN3CCOCC3)ccc2O[C@@H]1CN(C)CC1CC1	inactive	inactive	inactive
COc1ccc(NC(=O)Nc2ccc3c(c2)CC(=O)N([C@@H](C)CO)C[C@@H](C)[C@@H](CN(C)CC2CCCCC2)O3)cc1	inactive	inactive	inactive
Cc1ccc(S(=O)(=O)N(C)C[C@H]2Oc3ccc(NC(=O)C4CC4)cc3CC(=O)N([C@@H](C)CO)C[C@@H]2C)cc1	inactive	inactive	inactive
COc1ccc(CN(C)C[C@H]2Oc3ccc(NC(=O)CCCCCC(=O)Nc4ccccc4N)cc3CC(=O)N([C@H](C)CO)C[C@H]2C)cc1	inactive	inactive	inactive
COc1ccc(S(=O)(=O)N(C)C[C@H]2Oc3ccc(NS(C)(=O)=O)cc3CC(=O)N([C@H](C)CO)C[C@@H]2C)cc1	inactive	inactive	inactive
CCN(CC)CCOCCOC(=O)C1(c2ccccc2)CCCC1.O=C(O)CC(O)(CC(=O)O)C(=O)O	inactive	active	inactive
CCCC/C=C/[C@H]([C@@H](O)Cc1ccccc1)N(CC#Cc1ccccc1)Cc1ccccc1Br	inactive	inactive	inactive
C[C@@H]1CN([C@@H](C)CO)C(=O)c2cccc(NC(=O)c3nc4ccccc4s3)c2O[C@@H]1CN(C)Cc1ccc(C(F)(F)F)cc1	inactive	inactive	inactive
C[C@@H]1CN([C@@H](C)CO)C(=O)c2cc(C#CC3(O)CCCC3)cnc2O[C@H]1CN(C)C(=O)C1CCOCC1	inactive	inactive	inactive

Compound	cytotoxicity call (HSkMC)	cytotoxicity call (HepG2)	growth inhibition call (S. aureus RN4220)
CCC(C)C1NC(=O)C(CCNCS(=O)(=O)[O-])NC(=O)C(NC(=O)C(CCNCS(=O)(=O)[O-])NC(=O)C(NC(=O)C(CCNCS(=O)(=O)[O-])NC(=O)CCCCC(C)C)C(C)O)CCNC(=O)C(C(C)O)NC(=O)C(CCNCS(=O)(=O)[O-])NC(=O)C(CCNCS(=O)(=O)[O-])NC(=O)C(C(C)CC)NC1=O.[Na+].[Na+].[Na+].[Na+].[Na+] (configuration not stated)	inactive	active	inactive
O=C(C[C@@H]1CC[C@@H](NC(=O)Nc2ccc3c(c2)OCO3)[C@H](CO)O1)NCCCN1CCOCC1	inactive	inactive	inactive
Cn1cnc(S(=O)(=O)N2C[C@H](O)COC[C@@H]3O[C@@H](CC(=O)N4CCN(c5ccccc5)CC4)CC[C@H]32)c1	inactive	inactive	inactive
NCCC(=O)NCCc1cnc[nH]1	inactive	inactive	inactive
Cc1noc(C)c1NC(=O)Nc1ccc2c(c1)C(=O)N([C@H](C)CO)C[C@H](C)[C@H](CN(C)C(=O)Nc1ccc(F)cc1)OCCCC[C@H](C)O2	inactive	inactive	inactive
O=c1cccn[nH]1	inactive	inactive	inactive
CC(C)NC(=O)Nc1ccc2c(c1)C(=O)N([C@@H](C)CO)C[C@H](C)[C@@H](CN(C)C(=O)NC1CCCCC1)O2	inactive	inactive	inactive
Cn1cnc(CCNC(=O)C[C@@H]2CC[C@H]3[C@@H](COC[C@H](O)CN3C(=O)Nc3ccc(C(F)(F)F)cc3)O2)c1	inactive	inactive	inactive
C[C@@H]1CN([C@H](C)CO)S(=O)(=O)c2ccc(C#C[C@@H](C)O)cc2O[C@H]1CN(C)C(=O)Nc1ccccc1	inactive	inactive	inactive
CCCNC(=O)N(C)C[C@@H]1Oc2cc(C#Cc3cccc(F)c3)ccc2S(=O)(=O)N([C@@H](C)CO)C[C@H]1C	inactive	inactive	inactive
C[C@@H]1CCCCO[C@H](CN(C)C(=O)NC2CCCCC2)[C@H](C)CN([C@H](C)CO)C(=O)c2cc(NC(=O)CCC(F)(F)F)ccc2O1	inactive	inactive	inactive
C[C@@H]1CCCCO[C@@H](CN(C)S(=O)(=O)c2cccs2)[C@@H](C)CN([C@H](C)CO)C(=O)c2cc(NC(=O)NC3CCCCC3)ccc2O1	inactive	inactive	inactive
C[C@@H]1CCCCO[C@H](CN(C)C(=O)C2CCCCC2)[C@@H](C)CN([C@@H](C)CO)C(=O)c2cc(NS(=O)(=O)c3ccccc3)ccc2O1	inactive	inactive	inactive
C[C@@H]1CN([C@H](C)CO)C(=O)c2cc(NC(=O)Cn3cnnn3)ccc2O[C@H]1CN(C)Cc1ccncc1	inactive	inactive	inactive
C[C@@H]1CCCCO[C@@H](CN(C)Cc2ccc3c(c2)OCO3)[C@H](C)CN([C@H](C)CO)C(=O)c2cc(NC(=O)Nc3cccc4ccccc34)ccc2O1	active	active	inactive
C[C@H]1CN([C@@H](C)CO)C(=O)c2cc(NS(C)(=O)=O)ccc2O[C@H]1CN(C)S(=O)(=O)c1ccc(F)cc1	inactive	inactive	inactive
Cc1noc(C)c1S(=O)(=O)N(C)C[C@@H]1Oc2ccc(NS(=O)(=O)c3cn(C)cn3)cc2CC(=O)N([C@H](C)CO)C[C@H]1C	inactive	inactive	inactive
Cc1noc(C)c1NC(=O)Nc1ccc2c(c1)CC(=O)N([C@@H](C)CO)C[C@H](C)[C@@H](CN(C)Cc1ccc(-c3ccccc3)cc1)O2	inactive	inactive	inactive
CC(C)[C@@H](O)C[C@@H](C)O[C@@H]1O[C@H](CO)[C@@H](O)[C@H](O)[C@H]1O	inactive	inactive	inactive
C[C@@H]1CN([C@@H](C)CO)C(=O)c2c(c3ccccc3n2C)-c2ccccc2CO[C@H]1CN(C)C(=O)c1cc(Cl)cc(Cl)c1	inactive	inactive	inactive
Cc1cc(S(=O)(=O)NCC(=O)O)ccc1F	inactive	inactive	inactive
C[C@@H]1CCCCO[C@@H](CN(C)Cc2ccc(C(=O)O)cc2)[C@H](C)CN([C@@H](C)CO)C(=O)c2cc(NC(=O)Cc3ccccc3)ccc2O1	inactive	inactive	inactive
O=C(C[C@H]1C[C@H]2c3cc(NS(=O)(=O)c4ccc(F)cc4)ccc3O[C@H]2[C@@H](CO)O1)NCC(F)(F)F	inactive	inactive	inactive
N[C@@H](C(=O)O)c1ccc(O)cc1	inactive	inactive	inactive
C[C@H]1CN([C@@H](C)CO)C(=O)Cc2cc(NS(=O)(=O)c3cccs3)ccc2O[C@H]1CN(C)S(=O)(=O)c1ccc(F)cc1	inactive	inactive	inactive
COc1cccc(C#Cc2cnc3c(c2)C(=O)N([C@H](C)CO)C[C@@H](C)[C@H](CN(C)C(=O)C2CCC2)O3)c1	inactive	inactive	inactive
Cc1noc(C)c1NC(=O)Nc1ccc2c(c1)C(=O)N([C@@H](C)CO)C[C@H](C)[C@@H](CN(C)C(=O)Nc1c(C)noc1C)OCCCC[C@H](C)O2	inactive	inactive	inactive
